PubChem BioAssay (NCI)
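1) Cells in 96-well plates. 2) Compound, 48 h, 5 concentrations. 3) Linear interpolation between surrounding doses. 4) Unreached endpoint = highest concentration. The concentration for 50% growth inhibition is given as GI50. TGI denotes the concentration required for complete inhibition of growth.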

test system: NCI-H322M lung; assay: DTP human tumour cell line panel, 48 h

CC(C)(C)OC(=O)N1C/C(=C\c2ccc(F)cc2)C(=O)/C(=C/c2ccc(F)cc2)C1 and CCCCCc1ccc(S(=O)(=O)Nc2cc(-c3csc(N(C)C(C)=O)n3)ccc2N2CCN(C)CC2)cc1 are within 1.5-fold of each other in GI50: 12.2 µM for the first, 9.17 µM for the second.

COc1ccc2cc([C@H](C)C(=O)NCc3ccccc3)ccc2c1 gave a GI50 of 5.42 µM.

Compared with CC(C)(C)OC(=O)N1C/C(=C\c2ccc(F)cc2)C(=O)/C(=C/c2ccc(F)cc2)C1, CCCCCc1ccc(S(=O)(=O)Nc2cc(-c3csc(N(C)C(C)=O)n3)ccc2N2CCN(C)CC2)cc1 is higher in TGI: 27.8 µM for the first, greater than 35.5 µM for the second.

Compound COc1ccc2cc([C@H](C)C(=O)NCc3ccccc3)ccc2c1 has a TGI greater than 100 µM.
